Drawing on article PMC4242493, this text covers binding signal (normalized occupancy) for 94 sequences.

This is one part of the list. The list includes weakly bound sequences.

The target in the experiment is MaxL homodimer (UniProt P61244). Put plainly: universal protein-binding microarray (PBM). The settings on record: PBS-based mixture, 10 nM His-tagged protein dimer, 2% milk, 200 ng/uL BSA, 50 ng/uL salmon testes DNA, 0.02% TX-100; detection with Alexa 488 anti-His …; high values mean tight binding; most listed sequences are background and not binding sites; double strand, one strand shown.
Chain of UniProt P61244 (P61244 whole entry): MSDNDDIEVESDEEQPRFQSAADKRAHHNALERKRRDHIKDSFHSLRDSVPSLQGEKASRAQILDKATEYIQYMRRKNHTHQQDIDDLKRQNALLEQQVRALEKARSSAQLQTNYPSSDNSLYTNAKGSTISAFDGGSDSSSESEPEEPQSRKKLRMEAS
As for ACTCAAAA, the binding signal (normalized occupancy) was 0.0763.

Turning to TAAAAGCA, the binding signal (normalized occupancy) is 0.0757. As for ACGAACAC, the binding signal (normalized occupancy) is 0.0784. In the case of ACCCCGCC, the binding signal (normalized occupancy) turned out to be 0.0798. As for CCGGCACA, the figure is 0.0728; as for ATATGGCC, 0.0943. The figure for AAAGACTC is 0.069; for AAATGGGA it is 0.0763; for CTGAAAAC it is 0.0806.

GCGCGGAC: the binding signal (normalized occupancy) worked out at 0.0776. As for ATTCCATA, the figure is 0.0814; as for ACTGAGAT, 0.0773.

Turning to CAACCTAG, the binding signal (normalized occupancy) turned out to be 0.0722. Take CACCTCCG: the binding signal (normalized occupancy) came out at 0.0692.

For GACACATC, the binding signal (normalized occupancy) was 0.0782. AAGCGATA: the binding signal (normalized occupancy) worked out at 0.0694. On to TCAGCGGA, for which the binding signal (normalized occupancy) worked out at 0.0675. The figure for ACGTGACA is 0.108. For the sequence CGAGGGTC, the binding signal (normalized occupancy) worked out at 0.0654. For AATGGTGG, the binding signal (normalized occupancy) is 0.0789. As for ATCGAGCG, the figure is 0.0777; as for GGTACACC, 0.0771. In the case of CGACTGCG, the binding signal (normalized occupancy) was 0.0666. Consider ACTGCTAT, for which the binding signal (normalized occupancy) came to 0.0746. For the sequence ACTGCCGC, the binding signal (normalized occupancy) was 0.0714. As for CCGATCCG, the binding signal (normalized occupancy) came to 0.0711. For the sequence GAGTCGAC, the binding signal (normalized occupancy) is 0.0683.

For the sequence ATGCGACC, the binding signal (normalized occupancy) stood at 0.079.

For TCCCCCCA, the binding signal (normalized occupancy) came to 0.0805.

With ACACGGAC, the binding signal (normalized occupancy) was determined as 0.0766.

In the case of AGGGGAAT, the binding signal (normalized occupancy) was 0.0787.

Consider CACCCACA, for which the binding signal (normalized occupancy) is 0.0789. The figure for AACAGCAG is 0.0725; for ATCGTCTC it is 0.0733. As for AGAGAAAT, the binding signal (normalized occupancy) worked out at 0.073.

In the case of AACAACCA, the binding signal (normalized occupancy) is 0.0769. TAAGGCTA: the binding signal (normalized occupancy) was found to be 0.075. As for AAGGCCGT, the figure is 0.067.

On to CTGCACCC, for which the binding signal (normalized occupancy) amounted to 0.0712.

For ATTGCAGC, the binding signal (normalized occupancy) came to 0.0756. As for AACAAGTA, the figure is 0.074.

Regarding AATTAGTA, the binding signal (normalized occupancy) was determined as 0.0787.

In the case of AGGCCTGA, the binding signal (normalized occupancy) came out at 0.0765. Take ATATGTCA: the binding signal (normalized occupancy) turned out to be 0.0884. Turning to ATCTGGAC, the binding signal (normalized occupancy) amounted to 0.0745.

Regarding CAAATGAG, the binding signal (normalized occupancy) was found to be 0.0793. As to GTTTGCTA, the binding signal (normalized occupancy) is 0.0768. Take TCCCCTAA: the binding signal (normalized occupancy) is 0.0765. As for GCGTCCAC, the binding signal (normalized occupancy) came out at 0.0736. Consider ACTAAACG, for which the binding signal (normalized occupancy) stood at 0.075. Take GAGACCTA: the binding signal (normalized occupancy) worked out at 0.0724. On to AGCTCTAG, for which the binding signal (normalized occupancy) came out at 0.0679. ACCCGAAC: the binding signal (normalized occupancy) is 0.0791. Take ATCTTCAG: the binding signal (normalized occupancy) is 0.0734. Consider CGAAGCGC, for which the binding signal (normalized occupancy) was determined as 0.0652. As for CTCATAAA, the figure is 0.081. As for CCTCTCGC, the figure is 0.0693; as for AGGGCGAA, 0.0715. On to GACCGAAC, for which the binding signal (normalized occupancy) was found to be 0.0688.

Consider GGTGTGTA, for which the binding signal (normalized occupancy) is 0.0852.

Take AATAGTTC: the binding signal (normalized occupancy) was 0.0708. For the sequence CCGCTACA, the binding signal (normalized occupancy) was 0.0757. As for GAGCGCTA, the figure is 0.0668; as for AGAGCGCG, 0.0713; as for ATCCCCGA, 0.0778. GTTCGCCA: the binding signal (normalized occupancy) was 0.0711. Turning to ATAGTTAG, the binding signal (normalized occupancy) was determined as 0.0705. Regarding AGGCCTGG, the binding signal (normalized occupancy) worked out at 0.0702. As to CAGACACA, the binding signal (normalized occupancy) was found to be 0.0754.

Take TGTGCCAA: the binding signal (normalized occupancy) is 0.0737.

Turning to CATCGGCA, the binding signal (normalized occupancy) came out at 0.0713. As for AAGGAGGA, the binding signal (normalized occupancy) was 0.0699.

In the case of AACATTTC, the binding signal (normalized occupancy) was 0.0768. In the case of ACCTGCAT, the binding signal (normalized occupancy) is 0.0797. For AGTGTCTG, the binding signal (normalized occupancy) was 0.0697. For the sequence ACTGCAGT, the binding signal (normalized occupancy) came to 0.0691.

On to GGGCAGAA, for which the binding signal (normalized occupancy) amounted to 0.073. As for AAGTGAAC, the figure is 0.0781; as for ATCCCCGC, 0.0757; as for CATATCAG, 0.0835. As to CGGACGGA, the binding signal (normalized occupancy) amounted to 0.0673. The figure for GCTATGAA is 0.0758; for ACCAGTCG it is 0.073; for ACTACAGG it is 0.0769. As to CCTAGCTC, the binding signal (normalized occupancy) was 0.0703.

As for CGGGCTAA, the binding signal (normalized occupancy) was 0.0689. As to CCCACCGG, the binding signal (normalized occupancy) was found to be 0.0686.

Take ATACCCGC: the binding signal (normalized occupancy) was determined as 0.078. Consider ACTTGGCG, for which the binding signal (normalized occupancy) was found to be 0.0731. With CTCAGCGA, the binding signal (normalized occupancy) is 0.0718. For the sequence CATTGTGC, the binding signal (normalized occupancy) came to 0.08. On to ACTAAGCC, for which the binding signal (normalized occupancy) turned out to be 0.0709. CTCGATTC: the binding signal (normalized occupancy) stood at 0.0725. In the case of TACGGAAA, the binding signal (normalized occupancy) is 0.0756.
